# According to PMC3430861, “The pharmacological profile of ELIC, a prokaryotic GABA-gated receptor” (Neuropharmacology, 2012):
# Key:
# T6'S mutant ELIC [1] = target: T1, T6'S mutant ELIC (Dickeya chrysanthemi, UniProt P0C7B7, INS163G/T236S)
# Q2′N mutant ELIC [2] = target: T2, Q2′N mutant ELIC (Dickeya chrysanthemi, UniProt P0C7B7, INS163G/Q232N)
# Q2′N mutant ELIC [3] = target: T2, Q2′N mutant ELIC; remark: listed apart in the source
# T6'S mutant ELIC [4] = target: T1, T6'S mutant ELIC; remark: listed apart in the source
Compound,EC50 (T6'S mutant ELIC [1]) [mM],pEC50 (T6'S mutant ELIC [1]),EC50 (Q2′N mutant ELIC [2]) [mM],pEC50 (Q2′N mutant ELIC [2]),increase of IC50 relative to wild type (Q2′N mutant ELIC [3]) [fold],increase of IC50 relative to wild type (T6'S mutant ELIC [4]) [fold]
NCCCC(=O)O [GABA],1.8,2.75 ± 0.02,1.8,2.74 ± 0.02,–,–
O=S1OC[C@@H]2[C@H](CO1)[C@@]1(Cl)C(Cl)=C(Cl)[C@]2(Cl)C1(Cl)Cl (stereo partly drawn) [α-endosulfan],–,–,–,–,> 10,> 10
